Reference: the supplement of paper PMC3334620
Over roughly 33,000 sequences, “E-score (-0.5 to 0.5)” has its median near -0.012; the highest 2% begin near 0.27. The list shows a part of the results.

Biological target: T1, Vhr1 (UniProt P40522)
T1 sequence: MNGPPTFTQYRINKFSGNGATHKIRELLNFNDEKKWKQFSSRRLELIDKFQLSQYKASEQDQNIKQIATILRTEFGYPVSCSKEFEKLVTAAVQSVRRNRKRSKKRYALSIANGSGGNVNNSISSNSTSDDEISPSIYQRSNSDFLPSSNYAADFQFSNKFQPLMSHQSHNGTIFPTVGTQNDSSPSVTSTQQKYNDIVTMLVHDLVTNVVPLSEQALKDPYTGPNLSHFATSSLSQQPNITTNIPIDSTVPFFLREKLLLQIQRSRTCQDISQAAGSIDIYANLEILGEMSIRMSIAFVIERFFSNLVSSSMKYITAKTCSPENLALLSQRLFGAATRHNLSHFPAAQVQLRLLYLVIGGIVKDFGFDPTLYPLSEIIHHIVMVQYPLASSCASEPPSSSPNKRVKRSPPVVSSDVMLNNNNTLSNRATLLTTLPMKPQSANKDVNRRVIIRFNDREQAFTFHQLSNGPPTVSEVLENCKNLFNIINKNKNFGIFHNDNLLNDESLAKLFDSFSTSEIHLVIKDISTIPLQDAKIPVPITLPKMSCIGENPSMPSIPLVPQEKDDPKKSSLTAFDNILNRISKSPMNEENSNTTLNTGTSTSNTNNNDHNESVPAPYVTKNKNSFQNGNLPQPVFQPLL
Test: PBM E-score (8-mer binding enrichment) (E-score (-0.5 to 0.5)); higher = stronger / more preferred TF binding; most listed sequences are background and not binding sites
Conditions: protein concentration: 200 nM; construct: GST-full length
Summary of the method: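 Full-length yeast transcription factors or their DNA-binding domains, GST-tagged and expressed with PURExpress, were applied at about 100-200 nM to universal all-10-mer Agilent arrays. These arrays had been made double-stranded by primer extension on fresh or once-stripped slides. Detection used fluorescent anti-GST, normalisation used masliner, and E-scores for ungapped eight-base words pooled with reverse complements came from the Universal PBM Analysis Suite.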

Sequence | PBM E-score
CTGCGCAA | 0.0499
CTGTATGA | 0.00162
ACGTAGAG | -0.252
ATGCCTAG | -0.213
CAACCTCC | 0.0131
TAACGCCA | -0.00315
TGATTACA | 0.221
AGCTACTG | 0.175
GTCAACGA | 0.109
CGACCTGC | -0.0762
CAGTGTGA | 0.285
CGATGTGC | 0.184
AGTATCCA | 0.0886
ATCAAGAA | 0.032
AAGATGAA | -0.115
ACCCCTAT | 0.0618
CATTGGTA | 0.00258
ATGTCCTC | -0.156
GCTCTTGA | -0.0407
CGCCTATC | -0.00765
ATCGCCAA | -0.237
ACCATGCG | 0.0586

Sequence | PBM E-score
GGGTCGCA | 0.045
AGAGAATG | 0.0611
AATAAAGT | 0.0705
TCTATCAA | -0.129
GCTATGCC | -0.196
CCCTGCTA | -0.148
AGTCATGG | 0.458
ACTACCAG | 0.109
CGTGTGGC | 0.0774
CTCACACC | 0.0809
AAACTCCA | 0.0649
ATACAATC | 0.0532
AGTGCAGA | -0.109
AACAAGTT | 0.0211
ACTCCTCA | 0.0273
AGGTCGTA | 0.107
AGTACAGC | -0.0455
AAAACCGC | -0.0447
AGATTTGC | 0.0715
ATCCATTA | -0.00519
CGCATCCG | -0.00566
AACGCATG | 0.14

Sequence | PBM E-score
ATACATCG | 0.242
ACGACTAG | 0.162
ACGGGGCG | 0.0736
CATGGCGC | 0.0885
CACGACGC | -0.0679
CGCCCGCC | 0.17
CACTCGAC | 0.0633
GGGGTATA | -0.0282
CGGCATTC | -0.139
GGACAAAA | -0.132
ATGCACCC | 0.0555
AGCCCACA | 0.0814
ACATGGAC | 0.109
CTGAGAAC | 0.137
TCATTTCA | 0.048
CAAATGTC | -0.183
ATTGGCGC | -0.135
CTGGGAAG | -0.00594
AAAGGGCC | -0.189
ACGATAAG | -0.141
AATTCTAC | -0.173
AAAAAGAG | -0.13

Sequence | PBM E-score
CGGGACGA | -0.0597
ACTTAAGC | -0.18
CCAGGGCC | -0.21
GGAATGGA | -0.0073
AGACCGAG | -0.0568
GCGAATAA | 0.0367
AAGTCCAG | -0.23
CTTCTGAA | -0.0295
ACATGGCG | 0.152
ATAGGTAG | -0.0067
AAGTTAAA | -0.287
CCGCGACG | -0.0352
GCTTGCAA | 0.0649
TAATCTCA | 0.077
ACGGGCTA | -0.146
TACGCCTA | -0.0313
AGAGTTTG | 0.0245
GGGTGTCA | 0.0145
CCCCGACC | 0.0464
CGGCAACA | 0.0667
AATAATGC | 0.0521
CGTCACCA | -0.036

Sequence | PBM E-score
AAACCTGC | -0.144
TACGAAAA | -0.187
ACTAAAAC | -0.0433
AGCTGTCC | -0.239
TAGAGCGA | -0.0223
ACACGCCA | 0.163
ACTCCCGC | 0.0912
ATGTAAAC | 0.0482
CGGAGCAA | -0.0852
CGGATCTA | -0.0646
CTCTTACA | -0.136
ACAGATAT | 0.137
AAACTAAG | -0.00679
ACGTTTCG | 0.0198
CATCAAAA | 0.0172
GAATAGGA | -0.0181
ATCATCAT | 0.226
GTTCGCCA | -0.0665
GCCCGCAA | 0.12
AAAGGACT | -0.105
TAAAAGTA | -0.215
AATCAAGA | 0.0407
